Source: article PMC4336329 (PLoS ONE, 2015)
In all, about 310,000 compounds went through this assay and about 14,000 (4.5%) showed an effect of 50% or more. Effects have a minus sign here. The list shows a part of the results.

What follows are compounds tested against human ether-à-go-go-related gene (hERG) potassium channel (human, UniProt Q12809) (assay: primary screen, population patch clamp on CHO cells stably expressing hERG).
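Also: peak tail current of the secondary pulse compared with the same well before compound.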

Chain of human ether-à-go-go-related gene (hERG) potassium channel (Q12809 whole entry, looked up): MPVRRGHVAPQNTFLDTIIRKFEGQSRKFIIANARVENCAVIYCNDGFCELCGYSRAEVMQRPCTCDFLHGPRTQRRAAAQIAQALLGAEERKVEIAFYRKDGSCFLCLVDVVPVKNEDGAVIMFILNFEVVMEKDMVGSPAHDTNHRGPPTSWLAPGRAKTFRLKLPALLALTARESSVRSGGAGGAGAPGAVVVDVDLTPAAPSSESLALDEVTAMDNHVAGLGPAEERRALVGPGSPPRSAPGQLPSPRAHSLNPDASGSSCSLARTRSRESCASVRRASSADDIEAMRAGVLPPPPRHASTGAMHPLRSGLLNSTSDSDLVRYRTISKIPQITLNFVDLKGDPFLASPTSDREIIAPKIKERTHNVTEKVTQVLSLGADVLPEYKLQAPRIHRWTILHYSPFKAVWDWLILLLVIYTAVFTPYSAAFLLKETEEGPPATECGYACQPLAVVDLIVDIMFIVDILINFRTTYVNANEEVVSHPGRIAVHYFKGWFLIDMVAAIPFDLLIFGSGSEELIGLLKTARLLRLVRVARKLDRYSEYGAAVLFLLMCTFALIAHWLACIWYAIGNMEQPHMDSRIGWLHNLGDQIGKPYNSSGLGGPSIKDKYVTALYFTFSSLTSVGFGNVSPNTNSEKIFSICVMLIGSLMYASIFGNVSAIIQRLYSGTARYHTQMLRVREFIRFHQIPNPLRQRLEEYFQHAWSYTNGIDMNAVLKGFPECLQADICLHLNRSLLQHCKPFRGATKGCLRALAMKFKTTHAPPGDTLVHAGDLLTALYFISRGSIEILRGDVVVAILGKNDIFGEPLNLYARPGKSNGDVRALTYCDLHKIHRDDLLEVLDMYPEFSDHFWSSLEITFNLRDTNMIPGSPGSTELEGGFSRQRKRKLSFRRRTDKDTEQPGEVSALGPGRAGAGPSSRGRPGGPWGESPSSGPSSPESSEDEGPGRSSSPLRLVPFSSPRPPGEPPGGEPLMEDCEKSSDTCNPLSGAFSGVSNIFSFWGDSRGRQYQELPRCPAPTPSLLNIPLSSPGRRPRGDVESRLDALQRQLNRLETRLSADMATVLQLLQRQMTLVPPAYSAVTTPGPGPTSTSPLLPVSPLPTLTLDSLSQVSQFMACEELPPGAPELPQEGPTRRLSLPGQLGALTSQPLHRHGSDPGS

Compound	hERG current change (%, negative = inhibition) at 10uM [%]
COc1ccc(NC(=O)CCn2c(=S)[nH]c3ccccc3c2=O)cc1OC	19.4
Cc1ccc(S(=O)(=O)N(C)CCCC(=O)Nc2ccc(F)cc2)cc1	-30.1
Cc1cc(/C=C2/NC(=O)N(Cc3ccccc3F)C2=O)c(C)n1C	-12
O=C(NCC1CCCO1)C(=O)N/N=C/c1ccccc1C(=O)O (stereo not drawn)	24.4
COC(=O)c1cc(S(=O)(=O)n2nc(C)c(Br)c2C)c(Cl)cc1Cl	9.64
CN(C)Cc1ccccc1C(O)(c1ccccc1)c1ccccc1	-3.3
Cc1nc(-c2ccccc2)cs1	6.35
CCC(Sc1nc2ccccc2c(=O)[nH]1)C(=O)Nc1ccc(C(C)=O)cc1 (stereo not drawn)	-1.63
c1ccc(Cc2nnc3sc(-c4ccc5c(c4)OCCO5)nn23)cc1	-6.12
Cc1ccc(-c2nc3ncccn3c2Nc2ccc3c(c2)OCCO3)o1	-5.98
O=C1CCCc2ccccc2N1Cc1ccccc1Cl	-16.4
COC(=O)c1ccc2c(=O)n(CCO)c(=S)[nH]c2c1	13.2
O=C(COc1ncnc2scc(-c3ccc(F)cc3)c12)NCc1ccco1	-9.55
O=c1c2ccccc2sn1-c1ccc(S(=O)(=O)N2CCCC2)cc1	18.1
COc1cc(CN2CCCC(N3CCN(c4ccccc4C)CC3)C2)cc(Cl)c1O (stereo not drawn)	-40.2
CN1CCN(S(=O)(=O)c2ccc(Nc3ccc(F)cc3)nc2)CC1	-28.5
CCOc1ccc(S(=O)(=O)n2cc(-c3ccc(F)cc3)c(N)n2)cc1	11.2
COc1ccccc1NC(=O)c1ccccc1SC	-4.86
CCC1CCCCN1CCCNC(=O)CC1Oc2ccccc2NC1=O (stereo not drawn)	-12.4

Compound	hERG current change (%, negative = inhibition) at 10uM [%]
CCN(CC)S(=O)(=O)c1ccc(NCc2ccccn2)nc1	12.9
COCCn1c(C)cc(C(=O)COc2cccnc2[N+](=O)[O-])c1C	-2.79
Cc1ccc(C(=O)NCC(=O)N(C)CC(=O)Nc2ccccc2Br)s1	-7.85
CCCCn1c(O)c(C(C)=Nc2c(C)n(C)n(-c3ccccc3)c2=O)c(=O)[nH]c1=O	9.64
N#Cc1nc(-c2cccs2)oc1NCc1ccc(Cl)cc1	-8.4
O=C(Nc1ccc2oc(=O)ccc2c1)c1cc2ccccc2o1	-6.21
O=C(O)CCC(=O)Nc1ccccc1C(=O)NCc1ccccc1	10.3
CCCCc1ccc(S(=O)(=O)Nc2cc(C)on2)cc1	-0.896
CCOc1ccccc1-c1ccc(C(=O)NCc2ccccc2)o1	8.85
CCn1cnc2cc(NCc3ccc(Br)cc3)ccc21	-61.3
CC1CN(C(=S)Nc2cccc(F)c2)CC(C)O1 (stereo not drawn)	13.9
CCc1ccc(NC2=NC(C(=O)NC3CCCCC3)CC(=O)N2)cc1 (stereo not drawn)	14.9
COc1ccc(-c2cn(CCN)c(-c3ccncc3)n2)cc1	5.87
CCOC(=O)C1CCCN(Cc2cc(=O)oc3cc(C)c(C(C)C)cc23)C1 (stereo not drawn)	19.6
COc1ccc(NC(=O)c2ccccc2N(Cc2ccccc2)S(C)(=O)=O)cc1OC	10.8
Cc1nc2ncnn2c(C)c1CCC(=O)NCCc1ccccc1	-6.74
COc1ccccc1NS(=O)(=O)c1ccc2c(c1)NC(=O)C(C)S2 (stereo not drawn)	4.54
O=C(CN(C(=O)CCC(=O)Nc1nccs1)c1ccc(F)c(Cl)c1)NCc1ccco1	-7.47
CS(=O)(=O)N(CC(=O)Nc1ccc2c(c1)OCCO2)Cc1ccc(Cl)cc1	-9.31

Compound	hERG current change (%, negative = inhibition) at 10uM [%]
COc1cc(OC)c(C(=O)OCC(=O)NCCC2=CCCCC2)cc1OC	-2.59
Cc1cc(C)c(S(=O)(=O)c2ccccc2)c(OC(=O)c2cc(F)c(F)cc2Cl)n1	-0.663
CCn1c(=O)c(CCC(=O)NCC2CCCO2)c(C)c2c(C)nn(-c3ccc(C)cc3)c21 (stereo not drawn)	30.5
CC1=CC(C)(C)N(C(=O)CNC2CCCCC2)c2cc(C)ccc21.O=C(O)C(=O)O	-16.3
CCCn1c(N2CCN(Cc3cccc(C)c3)CC2)nc2c1c(=O)[nH]c(=O)n2C	-53
Cn1c(O)c(/C=N/NC(=O)c2cc3ccccc3cc2O)c2ccccc21	28.8
COc1ccc(CCC(=O)NCCOc2ccccc2Cl)cc1	-2.07
COC(=O)c1coc(-c2ccc(OC)cc2)c1C(=O)OC	13.8
C#Cc1ccc([C@H]2C=C(C(=O)NCc3nc4ccccc4[nH]3)O[C@@H](OCc3ccc(CO)cc3)C2)cc1	-1.37
C=CCn1c(C)cc(C(=O)CN2NS(=O)(=O)c3ccccc3C2=O)c1C	-20.8
CSc1nc2ccc(NC(=O)c3ccccn3)cc2s1	11.2
COc1ccc(OC)c(NC(=O)C2CCCN2C(=O)OCc2ccccc2)c1 (stereo not drawn)	-7.65
CC1(C)Cc2c(c(N3CCOCC3)nc3sc4c(N5CCOCC5)nnnc4c23)CS1	9.81
COc1cc(OC)cc(C(=O)NC2CC3CCC(C2)N3C)c1 (stereo not drawn)	-1.45
Cn1c(=O)c2cc(NC(=O)c3ccccc3Cl)c(=O)oc2n(C)c1=O	-7.06
O=C(CC1CC2CCC1C2)N1CCN(S(=O)(=O)c2ccccc2F)CC1 (stereo not drawn)	-10
Cc1cc(NC(=O)COC(=O)c2cc(S(=O)(=O)N3CCOCC3)ccc2N2CCCCC2)no1	-16.6
COc1ccc(OC)c(NC(=O)CSc2nnc(NC(=O)c3ccco3)s2)c1	13.8
S=c1[nH]nc(C2CCCCC2)n1/N=C/c1ccc(Br)cc1	13.3
